Consider 82 compounds from PubChem BioAssay (NCI).

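48-hour exposure; five concentrations; linearly interpolated endpoints. GI50 is the concentration that inhibits growth by half. TGI denotes the concentration required for complete inhibition of growth.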

The test concerns NCI-H322M lung. Briefly: DTP human tumour cell line panel, 48 h.
As a reminder, the TGI is the concentration giving total growth inhibition. A lower TGI goes with more potent growth arrest. On to `COc1cc(CNc2cnc3cc(N)ccc3n2)cc(OC)c1OC`, for which the TGI is over 100 µM.

As for `CCC/C=C1\CCC(CN(C)C)C1=O` (stereo not given), the TGI is over 57 µM.

In turn, `C(/Cc1ccc2c(c1)OCO2)=N\NC1=NCCN1` showed a concentration for total growth inhibition (TGI) of over 100 µM.

`C#CC[N+](C)(CC#C)CC#C` registered a total growth inhibition concentration (TGI) of over 100 µM.

`Clc1ccc(-c2nnc(-c3cccc4ccccc34)o2)cc1Cl` yielded a total growth inhibition concentration (TGI) of over 100 µM.

A word on the GI50: it is the concentration giving 50% growth inhibition. With `Cn1nc(-c2ccc(Cl)cc2)nc2c(=O)n(C)c(=O)nc1-2`, the GI50 was 0.914 µM and the TGI was 2.69 µM.

As to `Brc1ccc2[nH]cc(-c3nc(-c4c[nH]c5ncccc45)cs3)c2c1`, the GI50 is 4.12 µM and the TGI stood at 18.7 µM.

For `O=c1[nH]c2ccccc2c(O)c1/C=N/C(=S)NCc1ccccc1`, the TGI is over 100 µM.

On to `Cc1cc(Nc2nc(-c3cccnc3)nc3ccccc23)n[nH]1`, for which the GI50 is 2.74 µM and the TGI is over 92.1 µM.

Compound `COc1ccc(NC(=O)CC(=O)n2nc(C)c(N=Nc3cccc(C)c3)c2C)cc1` displayed a concentration for total growth inhibition (TGI) of over 100 µM.

As to `CC(C)(C)c1ccc(OC(=O)Nc2ccc(O)c(C(=O)O)c2)cc1`, the concentration for total growth inhibition (TGI) was over 100 µM.

`COc1cccc(-c2ccc3c(c2)C2CCN(Cc4ccccc4)C3C2)c1` (stereo not given): the GI50 is 18.2 µM and the concentration for total growth inhibition (TGI) amounted to 44.2 µM.

Take `COc1cccc2c1-c1c(c3ccc([N+](=O)[O-])cc3c(=O)n1CCCN)C2=O`: the GI50 was 1.83 µM and the TGI worked out at 4.76 µM.

On to `Nc1cc(O)ccc1N=Nc1ccc(-c2nc3ccccc3[nH]2)cc1`, for which the GI50 was 98.2 µM and the TGI was over 100 µM.

In turn, `Cc1cc(-c2ccccc2)nc(Nc2nc3ccccc3o2)n1` displayed a TGI of over 100 µM.

Turning to `COc1ccc(C(c2ccc(OCCN(C)C)cc2)c2cc3ccccc3c3ccccc23)cc1` (stereo not given), the GI50 is 1.6 µM and the total growth inhibition concentration (TGI) came out at 2.98 µM.

With `COc1ccc2c(c1)CC[C@@H]1[C@@H]2CC[C@]2(C)[C@@H](NC(=O)/C=C/c3ccc(O)c(O)c3)CC[C@@H]12`, the GI50 is 7.46 µM and the TGI was found to be 19.8 µM.

As to `COc1cc(C2=NNC(=O)c3ccccc3N2c2nc(-c3cccs3)nc3ccc(Br)cc23)cc(OC)c1OC`, the concentration for total growth inhibition (TGI) is over 100 µM.

In the case of `CC1=CC(=O)C(C(C)C)=CC1=Nc1cc(Br)c(O)c(Br)c1`, the GI50 is 7.37 µM and the TGI was 51.3 µM.

Take `C=CCc1cc(-c2cc(CC=C)c(O)c(CN(CC)CC)c2)cc(CN(CC)CC)c1O`: the concentration for total growth inhibition (TGI) was over 100 µM.

As to `COc1ccc(/C=C2\CCS(=O)(=O)c3ccccc3C2=O)cc1OC`, the concentration for total growth inhibition (TGI) was over 100 µM.

In the case of `O=C(CCC(=O)Nc1ccc(Cl)c(Cl)c1)CC(=O)c1ccc(F)cc1`, the TGI is over 100 µM.

For `CCC(c1ccc(OC)cc1)C(CC)c1ccc(O)c(CN2CCN(C)CC2)c1` (stereo not given), the GI50 was 5.62 µM and the TGI came to 17.2 µM.

`COC(=O)/C(=N/Nc1cccc(Cl)c1)C(C(=O)C(=O)Nc1cccc(Cl)c1C)c1nc2ccccc2nc1C` (stereo not given): the concentration for total growth inhibition (TGI) is over 100 µM.

For `O=[N+]([O-])c1ccc(N/N=C/CC(O)(C(F)(F)F)C(F)(F)F)c([N+](=O)[O-])c1`, the total growth inhibition concentration (TGI) was over 10 µM.

As to `COc1cc2c(cc1OC)C(Sc1ccc(SC)cc1)c1c(nc(N)c(C#N)c1N)O2` (stereo not given), the GI50 was 1.63 µM and the TGI came to 3.02 µM.

Take `CCO[C@@]1(COCc2ccccc2)OC(=O)C[C@@H]1N1C(=O)OC[C@@H]1c1ccccc1`: the concentration for total growth inhibition (TGI) was over 100 µM.

In turn, `COC(=O)/C=C\C(C#N)(C#N)N=Cc1ccccc1` registered a concentration for total growth inhibition (TGI) of 31.4 µM.

For `CCn1c(SC(C)C(=O)c2c(C)n(C)n(-c3ccccc3)c2=O)nc2ccccc2c1=O` (stereo not given), the TGI was over 100 µM.

Compound `CC12CC3OC(=O)C1COC14OC5(C2C1=O)C(O)(CCC1C4CC2OC24CC=CC(=O)C14C)C(=O)OC35C` (stereo not given) gave a TGI of over 100 µM.

`Cc1c(CCO)c(=O)n2c([nH]c3ccccc32)c1C#N` had a total growth inhibition concentration (TGI) of over 100 µM.

Take `COc1ccc2c(C3(c4cn(C)c5cc(OC)ccc45)C(=O)Nc4ccc(Cl)cc43)cn(C)c2c1`: the GI50 is 2.56 µM and the TGI was over 100 µM.

As to `CCN(Cc1ccc(F)cc1)c1ccc(CO)c(C)c1`, the GI50 is 15 µM and the TGI stood at 47.2 µM.

For `NC(=O)c1ccccc1NC(=O)C(=O)Cc1nc2ccccc2[nH]c1=O`, the concentration for total growth inhibition (TGI) was over 100 µM.

As for `COC(=O)C1=C(OC(=O)/C=C/c2ccccc2)C(C(=O)OC)[C@@]2(O)[C@@H](C(=O)OC)[C@H](C)C[C@@H]1[C@@H]2C(=O)OC` (stereo not given in full), the total growth inhibition concentration (TGI) was determined as 79.8 µM.

For the compound `C=C1C(=O)O[C@H]2[C@H]3O[C@@H](C[C@@H]12)[C@@]1(C)CC[C@H](O1)[C@H](C)CCC[C@H]3C`, the TGI stood at 13.3 µM.

With `O=S(=O)(O)c1ccc(N=Nc2nc(C(F)(F)F)c(C(F)(F)F)[nH]2)cc1`, the TGI was over 100 µM.

`CC(=O)c1ccccc1NCC(=O)Nn1cnc2ccc(S(=O)(=O)Nc3ccccc3C(C)=O)cc2c1=O`: the TGI is over 100 µM.

In the case of `COc1ccc2c(c1)C/C(=C\c1cccc3ccccc13)C2=O`, the concentration for total growth inhibition (TGI) was over 100 µM.

In the case of `CC1=NN(C(=O)CC(=O)Nc2ccccc2Cl)C(=O)C1N=Nc1ccc(S(=O)(=O)c2ccc(N=NC3C(=O)N(C(=O)CC(=O)Nc4ccccc4Cl)N=C3C)cc2)cc1` (stereo not given), the concentration for total growth inhibition (TGI) is over 100 µM.

`CN(CCO)CCCC1COc2ccccc2O1` (stereo not given): the TGI is over 100 µM.

In turn, `O=C(NC1CCCCC1)c1cc2ccccc2cc1O` gave a TGI of over 100 µM.

`O=C(O)C1CCCCC1c1c2ccc(=O)c(O)c-2oc2c(O)c(O)ccc12` (stereo not given) displayed a concentration for total growth inhibition (TGI) of over 100 µM.

In the case of `CN(Cc1cccc(F)c1)c1ccc(CO)c(Cl)c1`, the GI50 is 12.4 µM and the TGI was determined as 76.3 µM.

Regarding `CC(=O)OC1=CC2=CC[C@H]3[C@@H]4CCC(=O)[C@@]4(C)CC(=O)[C@]3(S)[C@@]2(C)CC1`, the TGI is over 100 µM.

In turn, `S=c1[nH]nc(Cc2ccccc2)c(=S)[nH]1` yielded a TGI of over 100 µM.

`CSc1c(C#N)c(N)nc2c(N=Nc3ccc(Br)cc3)c(N)nn12` yielded a total growth inhibition concentration (TGI) of 19.9 µM.

Compound `CCCCCCNC(=O)CCC(NC(=O)c1ccc(N(C)Cc2cnc3nc(N)nc(N)c3n2)cc1)C(=O)NCCCCCC` (stereo not given) returned a concentration for total growth inhibition (TGI) of over 100 µM.

The compound `COC12CCCN1c1ccn(Cc3ccccc3)c(=O)c1C2=O` (stereo not given) had a total growth inhibition concentration (TGI) of over 100 µM.

Consider `CCOc1cc(Br)c(C(C)NC(=O)c2cccc(OC)c2)cc1OCC` (stereo not given), for which the GI50 is 56.7 µM and the total growth inhibition concentration (TGI) is over 100 µM.

`CC(=O)OCc1cncn1S(=O)(=O)c1ccc(C)cc1`: the concentration for total growth inhibition (TGI) is over 100 µM.

As to `CC1(C)O[C@@H](CCl)C[C@H](C#N)O1`, the TGI is over 100 µM.

As for `COc1cccc(/C=N/NC(=S)NC2CC3CCC2C3)c1O` (stereo not given), the GI50 is 15.6 µM and the concentration for total growth inhibition (TGI) was 42 µM.

`CNC(=S)N/N=C(\C(=N/NC(=S)NC)c1ccccn1)c1ccccn1` registered a concentration for total growth inhibition (TGI) of over 100 µM.

Regarding `CC(=O)OCC1OC(OCCCCCCO)C(OC(C)=O)C(OC(C)=O)C1OC(C)=O` (stereo not given), the TGI was over 100 µM.

As to `CC(C)N1CCN(Cc2ccc3c(NNC(=O)c4ccccc4)nc4cc(F)ccc4n23)CC1`, the 50% growth inhibitory concentration (GI50) is 0.318 µM and the TGI stood at 13.2 µM.

On to `O=C(O)c1cn(C2CC2)c2cc(N3CCN(C(=O)Nc4nc(-c5ccccc5)cs4)CC3)c(F)cc2c1=O`, for which the GI50 was 1.99 µM and the TGI is over 100 µM.

Turning to `O=C1NC(=O)C(=Nc2cccc3c(=O)[nH][nH]c(=O)c23)C(c2nc3ccccc3s2)C1=O` (stereo not given), the total growth inhibition concentration (TGI) was over 100 µM.

Take `Cc1cc2cc3ccc(N(C)C)cc3nc2cc1N`: the GI50 was 0.563 µM and the TGI is 4.46 µM.

Consider `C[n+]1c(-c2ccc(/C=N/Nc3ccnc(N/N=C/c4ccc(-c5cn6ccsc6[n+]5C)cc4)n3)cc2)cn2ccsc21`, for which the concentration for total growth inhibition (TGI) was 93.2 µM.

On to `NC1=NC(c2ccc(Cl)cc2)N(c2ccc(S(N)(=O)=O)cc2)C(N)=N1` (stereo not given), for which the TGI was over 100 µM.

In turn, `O=C1C=CC(=C(c2ccc(O)cc2)c2ccc(O)cc2)C=C1` displayed a total growth inhibition concentration (TGI) of 28.8 µM.

Regarding `CS(=O)(=O)NNS(=O)(=O)c1ccccc1`, the TGI was over 100 µM.

`C/C(=C\c1ccccc1)C(=O)NCc1ccc(C(=O)NCCc2ccccc2)cc1`: the total growth inhibition concentration (TGI) was over 100 µM.

As to `CCOC(=O)c1c(C)n(Cc2ccccc2)c2c1cc(O)c1[nH]c(Cc3ccccc3)nc12`, the GI50 is 31.2 µM and the concentration for total growth inhibition (TGI) was over 100 µM.

For the compound `CCCCCCCCCCCCc1ccc(S(=O)(=O)O)cc1.[Zn+2]`, the TGI is over 100 µM.

For the compound `COC(=O)C1=C(c2ccc(OC)c(OC)c2)OC(c2cc(OC)c(OC)c(OC)c2)C1` (stereo not given), the concentration for total growth inhibition (TGI) is over 100 µM.

The compound `c1ccc(CN[C@]23C4C5CC6C7C5C2C7[C@@](NCc2ccccc2)(C64)N3Cc2ccccc2)cc1` (stereo not given in full) yielded a TGI of over 100 µM.

Compound `O=C(CCCCCCCCC(=O)N1C(=O)CC(=O)N(c2ccccc2)C1=S)N1C(=O)CC(=O)N(c2ccccc2)C1=S` had a TGI of over 100 µM.

Turning to `Cc1ccc(NC(=O)C(Cc2c[nH]c3ccccc23)NC(=O)Oc2ccccc2)cc1C` (stereo not given), the TGI came to 75.2 µM.

`O=C1c2ccccc2C(=O)c2sc(Nc3ccccc3C(F)(F)F)nc21` had a TGI of 27.7 µM.

With `CC(C)CCCC(C)[C@H]1CC[C@H]2[C@@H]3CC[C@H]4C[C@@H](CCC=C(c5cc(Cl)c(O)c(C(=O)OC(C)C)c5)c5cc(Cl)c(O)c(C(=O)OC(C)C)c5)CC[C@]4(C)[C@H]3CC[C@]12C` (stereo not given in full), the TGI was over 50 µM.

As for `O=C(CCCCCC(=O)N1CC(CCl)c2ccc([N+](=O)[O-])cc21)N1CC(CCl)c2ccc([N+](=O)[O-])cc21` (stereo not given), the TGI is over 100 µM.

The compound `C=CCN1C(=O)/C(=C/c2ccco2)N=C1SC1OC(COC(C)=O)C(OC(C)=O)C(OC(C)=O)C1OC(C)=O` (stereo not given) registered a TGI of over 100 µM.

For the compound `COc1ccc(S(=O)(=O)NC2=NCCN2C(=S)SN2CCn3c2nsc3=S)cc1`, the GI50 is 32.5 µM and the TGI worked out at 92.9 µM.

Compound `COC(=O)CCC1CCc2c(OC)ccc(OC)c2C1=O` (stereo not given) returned a TGI of over 100 µM.

For the compound `COc1cc2oc(=O)cc(C)c2cc1O`, the TGI is over 100 µM.

For the compound `COc1ccc(/C=c2\sc3n(c2=O)C2C(NN=3)N(C)C(=O)N2C)cc1` (stereo not given), the GI50 is 0.506 µM and the TGI is over 100 µM.

With `Cc1ccc(C(NC(=O)c2ccccc2)c2ccc3cccnc3c2O)cc1` (stereo not given), the 50% growth inhibitory concentration (GI50) is 0.304 µM and the TGI was 26.5 µM.

The compound `Cc1ccc(-n2cc(-c3ccc(Cl)cc3)c3c(N/N=C4\SCC(=O)N4C)ncnc32)cc1` displayed a TGI of over 100 µM.

In turn, `CSc1cc(-c2ccccn2)nc(-c2ccccn2)c1` returned a TGI of 4.88 µM.

For `NC(=O)c1c([N+](=O)[O-])cc(C(F)(F)F)cc1[N+](=O)[O-]`, the concentration for total growth inhibition (TGI) was over 100 µM.
